Reference: PubChem BioAssay AID624172 (National Center for Advancing Translational Sciences (NCATS), 2012)
Among all 380,000 compounds or so, about 25 (0.007%) were called active. The inconclusive results got no clear call from the source; some entries with a clear call stand among them for comparison. The call rests on the fitted dose curve; in most records, active means well fitted activation curve with a large enough effect; inconclusive means small, poorly fitted or top-dose-only effect; inactive means no such curve, though single readings can be large or run the other way. Potencies of inconclusive entries are left out as doubtful fits.

target: Glucagon-like peptide 1 receptor (Homo sapiens) (UniProt P43220); test: qHTS of GLP-1 Receptor Agonists; settings: HEK293 GLP-1R CRE-luciferase, luminescence, 4-6 h, cells express a hypersensitive GLP-1R form; activation: at 45.6 µM (top of the series) unless noted; on activation: % of control where 0% means no effect
Potency means the concentration at half of the fitted maximal effect; tags describe the fitted curve by direction and shape.

UniProt P43220, sequence (P43220 whole entry, looked up): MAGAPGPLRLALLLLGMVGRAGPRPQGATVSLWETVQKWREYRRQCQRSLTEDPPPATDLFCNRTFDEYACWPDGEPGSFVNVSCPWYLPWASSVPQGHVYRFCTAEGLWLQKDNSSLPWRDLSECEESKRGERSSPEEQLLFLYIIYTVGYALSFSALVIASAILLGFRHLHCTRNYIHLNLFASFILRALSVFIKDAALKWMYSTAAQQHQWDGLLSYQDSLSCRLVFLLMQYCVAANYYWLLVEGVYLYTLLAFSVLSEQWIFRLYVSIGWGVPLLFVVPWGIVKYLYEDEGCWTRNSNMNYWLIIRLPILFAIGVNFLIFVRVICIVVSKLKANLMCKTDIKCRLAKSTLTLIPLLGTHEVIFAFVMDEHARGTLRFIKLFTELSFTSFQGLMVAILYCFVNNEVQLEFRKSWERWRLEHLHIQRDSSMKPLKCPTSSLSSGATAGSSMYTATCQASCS

SMILES	Potency	activation
CCC[C@H]1C(=O)N2C(N(C)C)=Nc3ccc(C)cc3N2C1=O	inactive	–
CCN(Cc1ccccc1)C(=O)CCCOc1ccccc1	inactive	–
COCCn1c(SCCOc2ccccc2)nc2ccccc2c1=O	inconclusive [activator, single point]	–
O=C(c1ccc(COc2ccccc2Br)cc1)N1CCCCC1	inconclusive [activator, partial curve, poor fit]	–
COc1ccccc1Nc1cc(C(=O)NCc2cccnc2)c2ccccc2n1	inconclusive [activator, partial curve, poor fit]	–
CCOC(=O)NC(=S)Nc1ccc(OC)cc1	inactive	–
Cc1cccc(-c2nnc3sc(-c4ccccc4C)nn23)c1	inconclusive [activator, full curve, poor fit]	–
O=C(NCc1ccccn1)NC12CC3CC(CC(C3)C1)C2	inactive	–
Cc1ccc(C(C)(C)C)cc1S(=O)(=O)Nc1nc2ccccc2nc1Cl	inactive	–
Cn1c2ccc(F)cc2c2nnc(SCC(=O)Nc3cccc(O)c3)nc21	inconclusive [activator, partial curve]	–
Cn1cccc1/C=C1\SC(=Nc2ccccc2)NC1=O	inconclusive [activator, partial curve, poor fit]	–
Fc1ccc(CNc2ncnc3c2cnn3-c2ccccc2)cc1	inactive	–
CC(=O)N1CCCC(C(=O)c2ccc3c4c(cccc24)CC3)C1 (stereo not drawn)	inactive	–
O=C(N1CCN(c2ccc(F)cc2)CC1)C12CC3CC(CC(C3)C1)C2	inactive	–
COc1cc2cnc(-c3ccccc3)c(C(=O)c3ccc(F)cc3)c2cc1OC	inconclusive [activator, single point]	–
Cn1c(=O)c2nc(-c3ccccc3)oc2c2ccccc21	inconclusive [activator, single point]	–
CC[C@]1(O)C[C@H]2CN(CCC3=c4ccccc4=N[C]3[C@@](C(=O)OC)(c3cc4c(cc3OC)N(C)[C@H]3[C@@](O)(C(N)=O)[C@H](O)[C@]5(CC)C=CCN6CC[C@]43[C@@H]65)C2)C1	inconclusive [activator, full curve, poor fit]	–
CSc1nnc(C)c(/C=C/Nc2ccc(F)cc2)n1	inconclusive [activator, single point]	–
CCCCc1[nH]c(=O)c(C#N)c2c1CCCC2	inconclusive [activator, single point]	–
Cc1ccccc1NC(=O)Cc1nc(COC(=O)Cc2c(F)cccc2Cl)cs1	inactive	–
CSc1ncccc1C(=O)OCc1c(F)cccc1Cl	inconclusive [activator, partial curve, poor fit]	–
COc1cc(/C=C2/SC(=Nc3ccc(O)cc3)NC2=O)cc(OC)c1O	inconclusive [activator, single point]	–
CCOc1ccc(C(=O)NC(=S)Nc2ncccc2C)cc1[N+](=O)[O-]	inconclusive [activator, single point]	–

SMILES	Potency	activation
COc1ccc(-c2cc(C(=O)NC3=NCCS3)c3ccccc3n2)cc1OC	inconclusive [activator, partial curve, poor fit]	–
COc1ccc(-c2oc3cccnc3c2-c2ccc(OC)nc2)cc1	inconclusive [activator, partial curve]	–
COc1ccc(C2=NOC(C(=O)Nc3ccc(C)cc3)C2)cc1OC (stereo not drawn)	inconclusive [activator, partial curve, poor fit]	–
COCCOC(=O)C1=C(C)NC(=O)NC1c1cn(-c2ccccc2)nc1-c1cccs1 (stereo not drawn)	inactive	–
CC1CN(c2nc(Nc3ccccc3)nc(N)c2[N+](=O)[O-])CC(C)O1 (stereo not drawn)	inconclusive [activator, partial curve]	–
O=C(OCC1CC(c2ccccc2Cl)=NO1)c1ccc(Br)cc1 (stereo not drawn)	–	inconclusive: 37% [activator]
CCc1ccc(S(=O)(=O)Nc2ccc(-c3ccc4nnc(C)n4n3)cc2)s1	inconclusive [activator, partial curve]	–
COc1ccc(OC)c(NC(=O)CN2C(=O)CC(C)Sc3ccccc32)c1 (stereo not drawn)	inactive	–
CCOC(=O)C1CCN(Cc2nc3ccccc3c(=O)n2-c2ccc(OCC)cc2)CC1	inconclusive [activator, single point]	–
CCOc1ccc(S(=O)(=O)N2c3ccccc3CC2C)cc1 (stereo not drawn)	inconclusive [activator, single point]	–
COC(=O)c1ccc(-c2c(-c3ccccc3)ncc3cc(OC)c(OC)cc23)cc1	inconclusive [activator, partial curve, poor fit]	–
COc1ccc(C(CNC(=O)CNC(=O)c2cccc(F)c2)N2CCOCC2)cc1 (stereo not drawn)	inconclusive [activator, single point]	–
Cc1c(C(=O)N(C)C(C)c2ccccn2)oc2c(F)cccc12 (stereo not drawn)	inconclusive [activator, single point]	–
Oc1ccc2ccccc2c1N=Nc1ccccn1	inconclusive [activator, single point]	–
COc1ccc(CN(C)Cc2nc(Cc3ccccc3Cl)no2)cc1OC	inconclusive [activator, partial curve]	–
CCc1cc2c(COC(=O)c3cccc(S(C)(=O)=O)c3)cc(=O)oc2cc1O	inconclusive [activator, single point]	–
COc1ccc2ncc(S(=O)(=O)c3ccccc3)c(N3CCN(c4ccccc4)CC3)c2c1	inconclusive [activator, partial curve, poor fit]	–
O=CNc1cc(-c2ccccc2)cn2c(-c3ccc(F)c(Cl)c3)cnc12	inconclusive [activator, partial curve]	–
Cc1nnc(NC(=O)CSc2nnc(-c3ccc(S(=O)(=O)N4CCCC4)cc3)n2C)s1	inactive	–
COc1ccc(-c2nnc(SCc3ccccc3F)o2)cc1OC	inconclusive [activator, full curve]	–
COc1ccc(-n2cnc3cc(NCc4ccco4)ccc32)cc1	inconclusive [activator, partial curve, poor fit]	–
CCCn1nc2ccccc2c1P(=N)(N1CCOCC1)N1CCOCC1	inactive	–
CC(C)(C)CNc1cc(N2CCOCC2)ccc1[N+](=O)[O-]	inconclusive [activator, partial curve, poor fit]	–

SMILES	Potency	activation
C[C@H]1[C@@H](OC(=O)CCC(=O)O)OC2OC3(C)CC[C@H]4[C@H](C)CC[C@@H]1[C@@]24OO3 (stereo partly drawn)	inactive	–
CCOC(=O)Nc1cc(OC)cc2ccc(C)nc12	inconclusive [activator, partial curve, poor fit]	–
COc1cc(C(=O)OC(C)C(=O)NC(=O)NC2CCCCC2)ccc1OC(F)F (stereo not drawn)	inconclusive [activator, single point]	–
CCOc1ccc(C2c3cc(OC)c(OC)cc3CC(=O)N2c2ccccc2)cc1 (stereo not drawn)	inconclusive [activator, partial curve, poor fit]	–
CCOC(=O)c1c(-c2ccccc2)nc2cc(C)ccn12	inconclusive [activator, partial curve]	–
O=C(COc1ccccc1Cc1ccccc1)Nc1cccc(S(=O)(=O)N2CCOCC2)c1	inconclusive [activator, single point]	–
O=C(N/N=C/c1cccc([N+](=O)[O-])c1)c1cc2ccccc2o1	inactive	–
O=C(NC(=S)Nc1ccccn1)c1ccco1	–	inconclusive: 29.6% [activator]
O=C(O)CCn1cc(/C=C2\SC(=S)NC2=O)c(-c2ccccc2)n1	inactive	–
COc1ccc(CCNC(=S)NC(=O)c2c(-c3ccccc3Cl)noc2C)cc1OC	inconclusive [activator, partial curve, poor fit]	–
O=C(N[C@@H](Cc1ccccc1)C(=O)OCc1ccccc1)c1nc[nH]c1C(=O)N1CCc2ccccc2C1	inactive	–
COc1ccc(Nc2cc(Cl)nc(N)n2)cc1	inconclusive [activator, partial curve, poor fit]	–
NC(=S)N1OC[C@@H]2COc3ccc4ccccc4c3[C@@H]21	inactive	–
Cc1ccc(Oc2nc(CN3CCOCC3)nc3sc4c(c23)CCC(C)C4)cc1 (stereo not drawn)	inconclusive [activator, partial curve]	–
CCOC(=O)C1CCN(Cc2cnc(Oc3ccc(N)cc3)s2)CC1	inactive	–
CC(=O)c1ccc(-c2cnc3c(NC=O)cc(-c4ccccc4Oc4ccccc4)cn23)cc1	inconclusive [activator, full curve, poor fit]	–
c1ccc(Cc2nnc3sc(-c4cccs4)nn23)cc1	inconclusive [activator, single point]	–
O=c1c2c3c(sc2n(CCN2CCCCC2)c(=O)n1Cc1ccco1)CCCCC3	inconclusive [activator, partial curve, poor fit]	–
CC(C)C(=O)COc1c2occc2cc2ccc(=O)oc12	inconclusive [activator, partial curve, poor fit]	–
O=C(CCN1C(=O)C2C3C=CC(C4CC34)C2C1=O)Oc1cccc2cccnc12 (stereo not drawn)	inactive	–
CCOC(=O)[C@H]1[C@H]2COc3ccc(Cl)cc3[C@@H]2N2C(=O)c3cc(F)c(F)cc3NC(=O)[C@@]12C	inactive	–
COc1ccc(NC(=O)CNC(=O)c2nn(-c3ccc(OC)c(OC)c3)c(=O)c3ccccc23)c(OC)c1	inconclusive [activator, partial curve, poor fit]	–
